Out of some 310,000 compounds screened, about 14,000 (4.5%) showed an effect of 50% or more. The effect is printed as a negative number. The list shows a part of the results.
What follows are compounds tested against human ether-à-go-go-related gene (hERG) potassium channel (human, UniProt Q12809) (assay: primary screen, population patch clamp on CHO cells stably expressing hERG).
human ether-à-go-go-related gene (hERG) potassium channel, sequence (Q12809 whole entry, looked up): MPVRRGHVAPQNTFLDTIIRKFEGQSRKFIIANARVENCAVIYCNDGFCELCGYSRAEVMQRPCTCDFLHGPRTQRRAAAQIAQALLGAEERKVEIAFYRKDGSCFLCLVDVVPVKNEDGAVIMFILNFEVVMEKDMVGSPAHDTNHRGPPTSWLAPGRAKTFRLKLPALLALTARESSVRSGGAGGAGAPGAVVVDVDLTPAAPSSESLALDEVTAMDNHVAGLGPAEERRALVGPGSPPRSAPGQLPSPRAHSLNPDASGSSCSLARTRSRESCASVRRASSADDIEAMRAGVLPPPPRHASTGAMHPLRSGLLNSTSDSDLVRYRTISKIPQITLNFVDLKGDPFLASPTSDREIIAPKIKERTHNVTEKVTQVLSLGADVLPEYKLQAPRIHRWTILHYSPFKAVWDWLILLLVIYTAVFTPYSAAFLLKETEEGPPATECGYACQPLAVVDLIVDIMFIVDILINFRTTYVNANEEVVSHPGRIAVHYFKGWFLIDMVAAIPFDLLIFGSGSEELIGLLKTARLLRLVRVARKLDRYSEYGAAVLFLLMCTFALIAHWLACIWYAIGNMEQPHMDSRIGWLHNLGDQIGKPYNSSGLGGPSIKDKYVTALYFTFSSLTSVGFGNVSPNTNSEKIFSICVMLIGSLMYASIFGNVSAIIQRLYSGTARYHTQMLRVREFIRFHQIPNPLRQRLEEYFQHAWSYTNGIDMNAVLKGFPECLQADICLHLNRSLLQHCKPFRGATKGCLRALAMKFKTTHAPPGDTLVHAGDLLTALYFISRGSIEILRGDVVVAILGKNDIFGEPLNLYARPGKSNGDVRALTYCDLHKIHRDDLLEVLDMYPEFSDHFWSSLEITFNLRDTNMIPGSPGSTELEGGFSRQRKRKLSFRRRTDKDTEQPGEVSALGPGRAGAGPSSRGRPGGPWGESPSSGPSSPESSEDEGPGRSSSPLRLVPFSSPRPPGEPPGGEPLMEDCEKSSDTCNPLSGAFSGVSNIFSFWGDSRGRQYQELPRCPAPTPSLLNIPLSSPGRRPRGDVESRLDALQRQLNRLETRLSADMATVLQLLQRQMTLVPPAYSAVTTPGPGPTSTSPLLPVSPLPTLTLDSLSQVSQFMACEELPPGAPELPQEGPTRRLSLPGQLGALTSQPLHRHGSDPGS
With `c1ccc(Nc2nc(N3CCNCC3)nc(N3CCOCC3)n2)cc1` the “hERG current change (%, negative = inhibition) at 10uM” value was -43%.
With `COc1ccc(N(C(C)C(=O)N2CCCC2)S(C)(=O)=O)cc1` (stereo not drawn) the “hERG current change (%, negative = inhibition) at 10uM” value was 14.8%.
`CC(C)CN(CC(C)C)C(=O)CN1C(=O)NC2(CCCc3ccccc32)C1=O` (stereo not drawn) was tested, and the “hERG current change (%, negative = inhibition) at 10uM” value was 11.3%.
With `COc1ccc(-c2ccc(C#N)c(OC(=O)c3c(Cl)cccc3Cl)n2)cc1` the “hERG current change (%, negative = inhibition) at 10uM” value was 24.1%.
In the case of `COc1cc(C(=O)NC2CCCc3ccccc32)cc(OC)c1C` (stereo not drawn), the “hERG current change (%, negative = inhibition) at 10uM” value is reported as 20.8%.
`CCOC(=O)Cn1nc(C)c(-c2ccccc2)c1N` was tested, and the “hERG current change (%, negative = inhibition) at 10uM” value was 9.36%.
`O=C(OCc1ccc(F)cc1)c1ccc2c(c1)-c1ccccc1C2=O` was tested, and the “hERG current change (%, negative = inhibition) at 10uM” value was 12.2%.
For `COc1cccc(OCc2cc(C(=O)NCc3ccc4c(c3)OCO4)no2)c1`, the “hERG current change (%, negative = inhibition) at 10uM” value was 1.23%.
For `CCN(Cc1ccccc1)C(=O)C1CCN(C/C(C)=C/c2ccccc2)CC1.O=C(O)C(=O)O`, the “hERG current change (%, negative = inhibition) at 10uM” value was -70.4%.
For `CCOc1ccc(NC(=O)CSc2nc(=O)n(CCCN3CCOCC3)c3c2CCC3)cc1`, the “hERG current change (%, negative = inhibition) at 10uM” value was -24.1%.
For `C[C@@H](O)C(C(=O)N1CCNCC1)n1cc([C@@H](N)CCCCN)nn1` (stereo partly drawn), the “hERG current change (%, negative = inhibition) at 10uM” value was -22.5%.
For `COc1ccc(OCC(=O)Nc2cccc3cccnc23)cc1`, the “hERG current change (%, negative = inhibition) at 10uM” value was -3%.
With `O=C(Nc1cccc(S(=O)(=O)C(F)F)c1)c1ccc(S(=O)(=O)N2CCOCC2)cc1` the “hERG current change (%, negative = inhibition) at 10uM” value was -30.8%.
With `CCCCCCSc1ccc([C@H]2N[C@@](CC(C)C)(C(=O)OC)[C@H]3C(=O)N(CC)C(=O)[C@@H]23)cc1.O=C(O)C(F)(F)F` the “hERG current change (%, negative = inhibition) at 10uM” value was -0.125%.
In the case of `N=C1/C(=C/c2ccc(OCc3ccccc3)cc2)C(=O)N=C2SC(CC(=O)N3CCOCC3)=NN12`, the “hERG current change (%, negative = inhibition) at 10uM” value is reported as 11.6%.
`Cc1ccc(-n2[nH]c3c4c(ccc3c2=O)C(=O)c2ccccc2C4=O)cc1` was tested, and the “hERG current change (%, negative = inhibition) at 10uM” value was -0.491%.
For `CC(=O)CCn1cc([N+](=O)[O-])nc1C`, the “hERG current change (%, negative = inhibition) at 10uM” value was 7.91%.
In the case of `CC(C)N(C)Cc1nnnn1CC(=O)N(C)Cc1ccc(F)cc1`, the “hERG current change (%, negative = inhibition) at 10uM” value is reported as -14.2%.
With `Cc1ccc(Cl)cc1NC(=S)N(Cc1cccs1)C1CCCC1` the “hERG current change (%, negative = inhibition) at 10uM” value was 20.1%.
`COc1ccc(C)cc1NC(=O)Nc1ccc(Br)cn1` was tested, and the “hERG current change (%, negative = inhibition) at 10uM” value was 15.5%.
With `O=C(NCc1ccccc1Cl)C1CCCN(C(=O)Nc2ccc(F)cc2)C1` (stereo not drawn) the “hERG current change (%, negative = inhibition) at 10uM” value was -2.13%.
In the case of `CCOC(=O)c1c(CSc2ccccc2)oc2ccc(O)cc12`, the “hERG current change (%, negative = inhibition) at 10uM” value is reported as 3.91%.
`O=C(Nc1ccccc1N1CCN(C(=O)c2ccccc2)CC1)c1ccco1` was tested, and the “hERG current change (%, negative = inhibition) at 10uM” value was -74.2%.
For `Cn1c(C(=O)N2CCCC(C(=O)NCCc3ccccc3)C2)cc2sccc21` (stereo not drawn), the “hERG current change (%, negative = inhibition) at 10uM” value was -36.5%.

Source: paper PMC4336329 (PLoS ONE, 2015)
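Note: peak tail current of the secondary pulse compared with the same well before compound.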
